From PubChem BioAssay AID445 (National Center for Advancing Translational Sciences (NCATS), 2006)
In all, about 110,000 compounds went through this assay and about 40 (0.04%) were called active. The inconclusive results got no clear call from the source; some entries with a clear call stand among them for comparison. Calls come from the whole dose curve; as a rule, active = well fitted curve in the direction sought with a large enough effect in the signal ratio (not every such curve was filed as active); inconclusive = small, poorly fitted or top-dose-only effect, or a change in a side signal; inactive = flat fitted curve, though single readings scatter; the % refers to the signal ratio. A potency beside an inconclusive call is a rough fit, not a confirmed value.

assay: IkB Signaling; details: ABC-DLBCL IkBa-CBG/CBR dual luciferase ratio (green luciferase fused to IkBa over red control in OCI-Ly3 lymphoma cells), 4 h; IkBa stabilization activation: at 57.1 µM (top of the series), scaled: untreated 0%, proteasome inhibitor 100% unless noted;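 for IkBa stabilization activation: 0% = basal untreated cells and 100% = reference inhibitor full response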
Summary of the method: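 Curves were fitted separately to fusion (green), unfused (red) and ratio luminescence, then classed by r2, magnitude and activity. Cells: OCI-Ly3, 4 h compound plus doxycycline at 37C; 10 uM MG-132 defined full response.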
Potency is the fitted concentration of half-maximal effect.

Row | SMILES | IkBa stabilization activation | Potency
1 | CC(C)C(=O)Nc1cccc(C(=O)NCc2ccc3c(c2)OCO3)c1 | inactive | 
2 | Cc1sc2ncnc(SCc3ccco3)c2c1C | inconclusive: 0.683% [signal inhibitor] | 
3 | O=c1c2oc3ccccc3c2n(Cc2cccc(F)c2)c(=O)n1Cc1ccco1 | inactive | 
4 | COc1cccc(NC(=O)c2sc3nc(C)c(C(=O)Nc4ccc(C)cc4C)c(-c4sccc4C)c3c2N)c1 | inconclusive: 3.26% [signal inhibitor] | 
5 | CC(C)c1ccc2oc(-c3cc(NC(=O)c4cccs4)ccc3Cl)nc2c1 | inconclusive: 7.3% [signal inhibitor] | 
6 | CC1=C(C(=O)Nc2cccnc2)C(c2cccc(O)c2)n2nc(SCc3ccccc3)nc2N1 (stereo unspecified) | inactive | 
7 | CCCN1Cc2cccc(C(=O)Nc3ccc(N4CCN(CC)CC4)cc3)c2C1=O | inactive | 
8 | Cc1cc(C)c(Cn2c(CCNC(=O)c3ccco3)nc3ccccc32)c(C)c1 | inconclusive: 2.65% [signal inhibitor] | 
9 | Cc1ccc([C@H]2Nc3ccc(S(=O)(=O)Nc4cccc(Cl)c4C)cc3[C@H]3C=CC[C@H]32)cc1 | inconclusive: 9.73% [signal inhibitor] | 
10 | COc1ccccc1-c1cc(C(F)(F)F)nc(N2CCN(c3ccccc3)CC2)n1 | inactive | 
11 | Cc1ccc(Nc2nnc(-c3ccc(C)c(S(=O)(=O)N4CCN(C)CC4)c3)c3ccccc23)c(C)c1 |  | inconclusive: 25.1 µM [signal inhibitor, partial curve]
12 | Cc1ccc(OCCN2CCN(C(=O)CCC(=O)Nc3nnc(C)s3)CC2)cc1 | inactive | 
13 | CCOc1ccc2nc(N3CCC(C(=O)N4CCN(c5ccccn5)CC4)CC3)sc2c1 | inconclusive: 7.71% [signal inhibitor] | 
14 | CCCC(c1nnnn1Cc1ccc(OC)cc1)N1CCN(c2ccccc2OC)CC1 (stereo unspecified) | inconclusive: 3.35% [signal inhibitor] | 
15 | COc1cc(C(=O)OCCN2CCOCC2)cc(OC)c1OC | inactive | 
16 | COc1cccc(Cn2c(=O)c(C)nc3cnc(N4CCN(C)CC4)nc32)c1 | inactive: 3.44% [at 11.4 µM, scaled: untreated 0%, proteasome inhibitor 100%] | 
17 | Cc1ccc(-n2nc3c(N4CCC(C(=O)N5CCC(C)CC5)CC4)nnc(C)c3c2C)cc1 | inconclusive: -1.19% [signal inhibitor] | 
18 | COc1cc(OC)cc(C(=O)Nc2ccc(S(=O)(=O)N3CCCCC3c3cccnc3)cc2)c1 (stereo unspecified) | inconclusive: 3.41% [signal inhibitor] | 
19 | O=C(Nc1cccc(Cl)c1Cl)c1cc(S(=O)(=O)N2CCC3(CC2)OCCO3)ccc1F | inconclusive: 0.634% [signal inhibitor] | 
20 | Cn1c(C(=O)N2CCc3ccccc3C2)cc2c(=O)n3ccccc3nc21 | inactive | 
21 | N#CC1=C(N)N(c2ccccc2)C2=C(C(=O)CCC2)C1c1cccs1 (stereo unspecified) |  | inconclusive: 3.98 µM [signal inhibitor, partial curve]
22 | COc1ccc(-c2noc(CN3CCC(Cc4ccccc4)CC3)n2)cc1 | inconclusive: 3.16% [signal inhibitor] | 
23 | CCOc1ccccc1N1CC(c2nc3ccccc3n2CCOc2ccc(OC)cc2)CC1=O (stereo unspecified) | inconclusive: 0.876% [signal inhibitor] | 

Row | SMILES | IkBa stabilization activation | Potency
24 | O=C(O)CCc1ccc(-c2ccc(Br)cc2)o1 |  | inconclusive: 31.6 µM [rising, single point]
25 | COc1ccc(CNC(=O)c2cc(-c3cccs3)nc3ccccc23)c(OC)c1 | inconclusive: 2.52% [signal inhibitor] | 
26 | c1ccc2c(c1)nc(N1CCOCC1)c1nnnn12 |  | inconclusive: 2 µM [signal inhibitor, full curve]
27 | Cc1ccc(-c2nc3ccccn3c2Nc2c(C)cccc2C)o1 | inconclusive: 5.07% [signal inhibitor] | 
28 | Cc1nnc(N2CCCC(C(=O)Nc3ccccc3C(F)(F)F)C2)c2nn(-c3ccccc3)c(C)c12 (stereo unspecified) | inconclusive: -4.27% [signal inhibitor] | 
29 | CCOc1ccccc1-c1nc(-c2cc3ccc(C)cc3[nH]c2=O)no1 | inconclusive: 3.39% [signal inhibitor] | 
30 | CC(C)Cn1c(=O)c2sccc2n2c(CCCC(=O)NCC(C)c3ccccc3)nnc12 (stereo unspecified) | inconclusive: 1.15% [signal inhibitor] | 
31 | Cc1ccc(C2=Nc3ccccc3N(CC(=O)NCc3ccc(Cl)cc3)C(=O)C2)cc1C | inactive | 
32 | COc1ccc(OC)c(NC(=O)Cc2c(C(=O)O)[nH]c3ccc(Cl)cc23)c1 | inconclusive: 13.6% [signal inhibitor] | 
33 | Cc1ccc(C)c(N2CCN(C(=O)c3cc4c(=O)n(Cc5cccnc5)ccc4nc3C)CC2)c1 | inconclusive: 0.132% [signal inhibitor] | 
34 | COc1ccc(NC(=O)CSc2nc3ccccc3n2CC(=O)N2CCCC(C)C2)cc1 (stereo unspecified) | inactive | 
35 | Cc1cccc(C(=O)Nc2c(-c3ccc(F)cc3)nc3ccccn23)c1 | inconclusive: 6.89% [signal inhibitor] | 
36 | CCn1c(=O)c2cc(C(=O)Nc3cc(C)c(Cl)cc3OC)sc2c2ccccc21 | inconclusive: 3.55% [signal inhibitor] | 
37 | COC(=O)Cc1ccc(NC(=O)c2ccc(Br)o2)cc1 | inactive | 
38 | O.O.O.O.O.O.O.O=S(=O)([O-])[O-].[Co+2] | inactive | 
39 | O=C(COc1ncnc2ccccc12)c1ccc2c(c1)OCCO2 | inactive | 
40 | Cc1ccc(NC(=O)CSc2nccn2C2CCCC2)cc1 | inactive | 
41 | CCOc1ccccc1C1CC(=O)NC(C)=C1C(=O)OC1CCCCCC1 (stereo unspecified) | inconclusive: 7.01% [signal inhibitor] | 
42 | COc1ccc(NC(=O)C2CCCN(S(=O)(=O)c3cn(C)cn3)C2)cc1Cl (stereo unspecified) | inconclusive: -1.28% [signal inhibitor] | 
43 | O=C(CSc1nc2ccccc2nc1Cc1ccc(F)cc1)Nc1ccc2c(c1)OCO2 | inactive | 
44 | COc1cc(Cl)c(C)cc1NC(=O)CCCN1C(=O)C(c2ccccc2)Oc2cccnc21 (stereo unspecified) | inactive | 
45 | Cc1cccc(Oc2nc3ccccn3c(=O)c2/C=C(\C#N)c2nc3ccccc3s2)c1C | inconclusive: -3.77% [signal inhibitor] | 
46 | COc1ccc(CCNC(=O)c2ccc3c(c2)CCN3S(=O)(=O)c2ccc(Cl)cc2)cc1 | inconclusive: 0.762% [signal inhibitor] | 
